Data reported in PMC12345631.
Results are given in words; binding and its absence hold for the method and conditions named. In cells and extracts the contact can be indirect. Tags and fused reporters may be left off the sequences shown.

Legend:
Test in all cases: co-IP; anti-Flag (M2) on Dynabeads Protein G, 1–2 h at 4°C; lysis in 50 mM HEPES pH 7.5, 150 mM NaCl, 1 mM EDTA, NP-40; washes with 0.2% NP-40; blot for HA; cells in YPD, YPL, SD or SL medium; wild-type or mkt1∆ background; CEN.PK and S288C
[1] = molecular target: T1, Pbp1Δ491-570 (Flag-tagged) (S. cerevisiae) (UniProt P53297)
T1 sequence: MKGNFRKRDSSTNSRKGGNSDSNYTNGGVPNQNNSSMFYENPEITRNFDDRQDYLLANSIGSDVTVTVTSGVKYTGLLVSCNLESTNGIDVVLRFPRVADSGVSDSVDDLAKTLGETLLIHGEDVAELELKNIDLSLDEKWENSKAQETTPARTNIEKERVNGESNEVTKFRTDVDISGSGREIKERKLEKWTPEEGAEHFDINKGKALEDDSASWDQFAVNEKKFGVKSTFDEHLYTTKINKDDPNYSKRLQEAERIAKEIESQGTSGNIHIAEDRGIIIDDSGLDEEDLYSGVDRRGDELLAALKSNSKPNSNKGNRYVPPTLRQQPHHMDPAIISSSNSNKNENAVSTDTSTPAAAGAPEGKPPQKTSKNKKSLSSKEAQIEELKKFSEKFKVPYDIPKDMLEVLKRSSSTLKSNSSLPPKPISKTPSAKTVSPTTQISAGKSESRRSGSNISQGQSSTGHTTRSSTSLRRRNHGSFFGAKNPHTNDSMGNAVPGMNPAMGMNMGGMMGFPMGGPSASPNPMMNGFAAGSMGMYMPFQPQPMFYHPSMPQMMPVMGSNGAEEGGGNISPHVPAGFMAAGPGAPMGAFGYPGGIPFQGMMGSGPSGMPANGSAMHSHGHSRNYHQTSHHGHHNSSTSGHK

[2] = molecular target: T2, Pbp1-4A (Flag-tagged) (S. cerevisiae) (UniProt P53297)
T2 sequence: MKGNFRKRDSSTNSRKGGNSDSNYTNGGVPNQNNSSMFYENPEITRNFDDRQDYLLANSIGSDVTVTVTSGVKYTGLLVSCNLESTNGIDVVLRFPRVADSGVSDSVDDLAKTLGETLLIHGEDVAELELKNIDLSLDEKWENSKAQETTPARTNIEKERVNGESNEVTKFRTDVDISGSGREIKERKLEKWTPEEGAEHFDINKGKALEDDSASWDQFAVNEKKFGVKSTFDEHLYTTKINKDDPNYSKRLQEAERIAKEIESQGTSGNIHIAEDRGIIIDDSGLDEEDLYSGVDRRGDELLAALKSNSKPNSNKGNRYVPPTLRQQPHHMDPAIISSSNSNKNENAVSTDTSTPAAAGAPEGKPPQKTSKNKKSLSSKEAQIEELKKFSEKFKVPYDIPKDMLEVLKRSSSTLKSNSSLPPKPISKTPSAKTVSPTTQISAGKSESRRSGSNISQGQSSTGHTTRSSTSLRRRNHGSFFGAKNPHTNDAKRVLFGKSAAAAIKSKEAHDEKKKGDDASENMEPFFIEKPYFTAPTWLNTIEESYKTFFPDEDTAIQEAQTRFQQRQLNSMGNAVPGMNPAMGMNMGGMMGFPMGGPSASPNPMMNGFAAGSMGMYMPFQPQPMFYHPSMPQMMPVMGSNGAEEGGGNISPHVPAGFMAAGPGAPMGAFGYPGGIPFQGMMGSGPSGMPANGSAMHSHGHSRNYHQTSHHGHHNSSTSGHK

[3] = molecular target: T3, Pbp1Δ500-503 (Flag-tagged) (S. cerevisiae) (UniProt P53297)
T3 sequence: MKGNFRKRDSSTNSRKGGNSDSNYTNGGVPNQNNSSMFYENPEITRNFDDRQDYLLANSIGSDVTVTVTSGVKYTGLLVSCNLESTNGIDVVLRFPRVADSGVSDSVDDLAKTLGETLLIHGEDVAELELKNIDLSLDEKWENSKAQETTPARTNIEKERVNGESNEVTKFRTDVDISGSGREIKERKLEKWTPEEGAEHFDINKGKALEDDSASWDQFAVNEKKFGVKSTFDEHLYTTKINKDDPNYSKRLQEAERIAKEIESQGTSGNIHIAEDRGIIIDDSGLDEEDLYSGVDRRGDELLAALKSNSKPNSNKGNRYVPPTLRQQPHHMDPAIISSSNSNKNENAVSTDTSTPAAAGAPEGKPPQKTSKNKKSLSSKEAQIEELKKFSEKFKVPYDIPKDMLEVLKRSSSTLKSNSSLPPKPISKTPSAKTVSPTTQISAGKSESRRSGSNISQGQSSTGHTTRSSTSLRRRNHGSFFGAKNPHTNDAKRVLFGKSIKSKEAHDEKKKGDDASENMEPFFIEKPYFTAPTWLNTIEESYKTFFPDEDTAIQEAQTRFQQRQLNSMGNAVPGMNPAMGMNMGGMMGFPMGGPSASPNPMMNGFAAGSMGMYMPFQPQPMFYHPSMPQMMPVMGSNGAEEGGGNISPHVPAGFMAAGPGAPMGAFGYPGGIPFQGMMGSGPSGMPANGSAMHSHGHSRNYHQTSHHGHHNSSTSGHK

Measured: binding

B1: Mkt1-HA (protein, UniProt P40850 1-830)
chain: MAIKSLESFLFERGLVGSYAIEALNNCTLGIDVNHYVSRLLTNKREQYLDAIGGFPTSLKMYLESDLKIFKDFNITPIFVFNGGLTYNQLEASGHFTAASASASISSTTTSSSGTNATTRSNTESVLLQRSRGWTQWNNLISSNQNSYIDQPIQPQEPFRHNTTIDSKAYQNDLIAYFIEHGYMYQVAPYSSWFQLAYLLNSAYIDAIYGPTDCLMLDCVDRFILGMEFPNKEFRFIDRSRVMKDLGCTHEEFIDIAMAVGNDLQPTTLPPLQIYPVPQLFDIALEMVLNTGTNFYAYQLSTTLQNDSKENIQNYQRGISALRYMPVLKDTGKVELFVQEIVVSEEDSEKNNKDGKKSNLSSPSSASSSASPATTVTKNASEKLTYEKSSTKEVRKPRDIPNDVHDFIGQMLPHEYYFYRSIGLVTGKLFDAIVTGVYPEEPPLGGGSSTSYRKLVSKSVEIFKNKEINLLTQPINRYYQIKQIKQVKWYAANEPTTLTNRMSPSMFETINHLIVKTETSDEKEFSISEFITTINGSSNMAKDFISEKVIFPNSVPIESKLNSPFNLLSTNFLRLLVLLEFFTFDFKEKLLEPTRWGEVFLKLNELNIDSKYHESVIIFLVFLKCDVLKLDEEVQPPAPSALSQATLRSYPEESLYVLLITRVLTLFQVDQKPSNYHGPIDKKTLIFRDHLSFIKENLNELFEAVLISSLTSGEFNRLSLDNFGWARKIVRYLPFKLDSPNTIMAMMWEFFLQKYLHNGNAKNDALSLVATEFNTYKSTPNLDEQFVESHRFLLEISKVMQELNAAKLIDENVFKLFTKAVEFTTTALSS
no binding: all assays above
